Measured values published in PubChem BioAssay AID2546 (National Center for Advancing Translational Sciences (NCATS), 2010).
The campaign covered roughly 310,000 compounds. About 11,000 (3.5%) were called active. The inconclusive results got no clear call from the source; some entries with a clear call stand among them for comparison. The call rests on the fitted dose curve; in most records, active means well fitted inhibition curve with a large enough effect; inconclusive means small, poorly fitted or top-dose-only effect, or effect the other way; inactive means flat fitted curve, though single readings scatter. No potency is given beside an inconclusive call; the fits are too rough.

assay: VP16 counterscreen qHTS for inhibitors of ROR gamma transcriptional activity; settings: Drosophila S2 Gal4-VP16 UAS-luciferase, luminescence, 20 h; series mostly up to 53.6 µM;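 further: Gal4-VP16 expression switched on by copper sulfate through the metallothionein promoter; nearly all actives have a fitted effect of over 50% in size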
Potency means the concentration at half of the fitted maximal effect; tags describe the fitted curve by direction and shape.

SMILES	Potency
CCc1nn(CCCC(=O)NCc2ccccc2Br)c(=O)c2cc3occc3n12	inconclusive [inhibitor, single point]
Cc1c(NC(=O)CN(c2ccc(F)cc2)S(=O)(=O)c2ccccc2)c(=O)n(-c2ccccc2)n1C	inconclusive [inhibitor, single point]
COc1ccc(CCNC(=O)C(=O)NCC2OCCN2S(=O)(=O)c2ccc(Br)cc2)cc1OC (configuration not stated)	active: 7.94 µM
CC(=O)c1cccc(OCC(=O)c2cc(C)n(-c3cc(C)on3)c2C)c1	inconclusive [inhibitor, single point]
CCOC(=O)Cc1csc(NC(=O)CSc2nnc(-c3ccc(F)cc3)o2)n1	inconclusive [inhibitor, single point]
CCOC(=O)N1CCC(NC(=O)C2CCCN(Cc3nc(-c4cccc(Cl)c4)oc3C)C2)CC1 (configuration not stated)	inconclusive [inhibitor, single point]
COc1cccc(-c2nc(NCc3ccco3)c3ccccc3n2)c1O	inconclusive [inhibitor, partial curve]
CC(C)(C)c1ccc(C(=O)c2c[nH]c(C(=O)NCCCn3ccnc3)c2)cc1	inconclusive [inhibitor, single point]
Cc1cccc(NC(=O)CCC(=O)N/N=C/c2ccc(O)cc2O)c1	inactive
Cc1ccc2[nH]c(-c3ccc(F)cc3F)cc(=O)c2c1	inconclusive [inhibitor, single point]
O=C(Nc1nc(-c2ccccc2)c(-c2ccccc2)o1)c1ccc(F)cc1	active: 2.82 µM
CC1C(=O)Nc2ccc(S(=O)(=O)N3CCN(c4ccccc4F)CC3)cc2NC1=O (configuration not stated)	inconclusive [inhibitor, single point]
CCCCn1c(SCc2ccc(Cl)cc2)nc2c1c(=O)[nH]c(=O)n2C	inconclusive [inhibitor, single point]
O=C(Nc1ccc(Cc2ccncc2)cc1)c1ccc(S(=O)(=O)N2CCOCC2)cc1	active: 7.08 µM
S=c1[nH]nc(CN2CCCCC2)n1-c1ccc(Cl)cc1	inconclusive [inhibitor, single point]
Cc1nc(C)n(CCNC(=O)c2ccco2)n1	inactive
CCS(=O)(=O)NCc1ccc2c(c1)cc(C)n2C	inactive
O=C1NC(=O)C(Cc2ccccc2)(c2cccnc2)N1 (configuration not stated)	inactive
C/C(=N\NC(=O)c1nc2ccccn2c1C)c1ccc2c(c1)OCO2	inconclusive [inhibitor, single point]
N#CC1=C(N)NC(=S)C(C(N)=O)C1c1ccc([N+](=O)[O-])cc1 (configuration not stated)	active: 12.6 µM
O=C(Nc1nnc(-c2ccco2)o1)C1CCCCC1	inconclusive [inhibitor, partial curve, poor fit]
Cc1ccc(Cn2c(SCC(=O)Nc3cc(C)on3)nc3ccccc3c2=O)cc1	inconclusive [inhibitor, single point]
C=CCN1C(=O)N(/C=C/C)c2cccc3cccc1c23	inactive
CN(CC1CCCO1)S(=O)(=O)c1ccc(C(=O)Nc2nnc(-c3ccccc3)o2)cc1 (configuration not stated)	active: 0.562 µM

SMILES	Potency
CCn1c(=O)cc(SCC(=O)Nc2ccc3c(c2)OCO3)c2ccccc21	inconclusive [activator, partial curve]
C(=N\Nc1nc2ccccc2[nH]1)/c1ccccn1	active: 1.12 µM
O=C(NC(=S)Nc1cc(C(F)(F)F)ccc1Cl)c1ccccc1	inconclusive [inhibitor, partial curve]
CCN(CC)S(=O)(=O)c1ccc(C(=O)Nc2nnc(NC(=S)Nc3ccccc3)s2)cc1	inconclusive [inhibitor, partial curve, poor fit]
Cc1ccc(N=Nc2c(C)[nH]n(-c3ccccc3)c2=O)c(C)c1	active: 17.8 µM
O=C(NCCO)c1ccc2c3n(nc2c1)-c1ccccc1CO3	inconclusive [inhibitor, partial curve, poor fit]
OCCCNc1ncnc2sc3c(c12)CCN(Cc1ccccc1)C3	inactive
Cn1c(=O)c2c(nc(SCc3ccc(F)cc3)n2C)n(C)c1=O	inconclusive [activator, single point]
O=C(Nc1ccc2nc(-c3ccccn3)[nH]c2c1)C1CCCCC1	inconclusive [inhibitor, single point]
O=C(Nc1cc(Oc2ccc(Cl)cc2)cc([N+](=O)[O-])c1)c1ccco1	active: 7.94 µM
O=C(CCNC(=O)Cn1ccc2ccccc2c1=O)NCCN1CCN(c2cccc(Cl)c2)CC1	inactive
CC(C)c1ccc(/C=C(\c2nc3ccccc3[nH]2)S(=O)(=O)c2ccccc2)cc1	inconclusive [inhibitor, single point]
Cc1cc(C)c(NC(=O)Cn2nc(-c3ccccc3)nc2-c2ccccc2)c(C)c1	inconclusive [activator, single point]
Cc1cccc(NC(=S)Nc2cccc(C(F)(F)F)c2)n1	inconclusive [inhibitor, full curve, poor fit]
CCC(CC)c1nnc(NC(=O)c2cccc(S(=O)(=O)N3CCc4ccccc43)c2)s1	inconclusive [inhibitor, single point]
COc1ccc(/C(N)=N/OC(=O)CN(C)S(=O)(=O)c2ccc(C)cc2)cc1	inconclusive [inhibitor, single point]
Cc1ccc(C)c(S(=O)(=O)NCc2ccncc2)c1	inconclusive [inhibitor, single point]
O=C(CCNS(=O)(=O)c1ccc2[nH]c(=O)oc2c1)NCc1ccccc1	inactive
O=C(Nc1ccc(S(=O)(=O)NCC2CCCO2)cc1)c1cccc(F)c1 (configuration not stated)	inconclusive [inhibitor, single point]
COC(=O)Cc1ccc(NC(=S)NCc2ccccc2)cc1	active: 31.6 µM
Cc1ccc(C(=O)NCCc2nnc3ccc(SCC(=O)NCc4ccc(F)cc4)nn23)cc1	inactive
O=C(COC(=O)c1cc(-c2ccccn2)nc2ccccc12)Nc1ncc(C(F)(F)F)cc1Cl	inactive
COc1ccc(CNc2nc(-c3ccc(C(=O)N(C)C)cc3)nc3ccccc23)c(OC)c1	inactive
COc1ccc2cc(C(=O)NCc3ccco3)c(=Nc3ccc(C(=O)O)cc3)oc2c1	active: 2.82 µM

SMILES	Potency
COc1ccc(/C=N/Nc2nccnc2Cl)c(OC)c1	inconclusive [inhibitor, single point]
O=C(Cn1cnc2cc([N+](=O)[O-])ccc2c1=O)Nc1ccc2c(c1)OCO2	inactive
O=C(CC(Nc1ccccc1)C(=O)O)c1ccccc1 (configuration not stated)	active: 7.94 µM
O=C(OCC(=O)N(C1CCCCC1)C1CCCCC1)c1ccccc1O	inactive
Cc1cccc(NC(=S)NC(NC(=O)OCc2ccccc2)C(Cl)(Cl)Cl)c1 (configuration not stated)	inconclusive [inhibitor, single point]
O=C(Nc1ccc(Cl)cc1)N1CCc2ccccc2C1	inconclusive [inhibitor, full curve, poor fit]
CCOc1ccccc1Nc1nc(N)nc(CSc2nccc(C)n2)n1	inactive
COC(=O)/C(=C/c1ccc2c(c1)c1ccccc1n2C)NC(=O)c1ccccc1	inconclusive [activator, single point]
CCCCCc1cc(=O)oc2c(C(CCN3CCN(c4ccccc4)CC3)c3ccc(N(C)C)cc3)c(OC)cc(OC)c12 (configuration not stated)	inactive
CC(=O)Nc1ccc(C)c(NC(=S)Nc2ccc(F)cc2)c1	inactive
O=C1c2ccc(O)c(O)c2C(=O)c2c(O)ccc(O)c21	inconclusive [inhibitor, partial curve, poor fit]
CC(C)(C)C(=O)COC(=O)c1cccc(NC(=O)c2ccco2)c1	inconclusive [inhibitor, single point]
COc1ccccc1-c1nc(-c2ccc(Br)o2)no1	inconclusive [inhibitor, single point]
CC1(C)CCC(C)(C)NC(=S)N1	inconclusive [inhibitor, single point]
O=C(c1ccc(S(=O)(=O)NCC2CCCO2)cc1)N1CCN(c2cccc(Cl)c2)CC1 (configuration not stated)	inconclusive [inhibitor, single point]
O=C(CSc1nnc(-c2cnccn2)n1Cc1ccco1)c1ccc(Cl)cc1	inconclusive [inhibitor, single point]
CCOc1ccc(C(=O)N/N=C(\c2ccccc2)c2ccccn2)cc1	active: 0.0562 µM
COc1ccc(NC(=O)CSC2CC(=O)N(c3ccc4c(c3)OCCO4)C2=O)cc1 (configuration not stated)	active: 5.01 µM
Cc1cccc(C(=O)NNC2=C(C(=O)C(F)(F)F)CCC2)c1O	active: 10 µM
CCOc1c2ccc(C(=O)NCc3ccc(C(F)(F)F)cc3C(F)(F)F)cc2nn1C	inconclusive [inhibitor, single point]
COc1ccc(NS(=O)(=O)c2cccc(NC(=O)c3ccccn3)c2)cc1	inconclusive [inhibitor, single point]
O=C(O)C1CSC(CCc2ccccc2)N1 (configuration not stated)	inactive
C=C(C(C)=O)C(O)c1ccc([N+](=O)[O-])cc1 (configuration not stated)	active: 10 µM
COc1cc(/C=C/c2cc(C(F)(F)F)[nH]c(=O)n2)cc(OC)c1OC	inconclusive [inhibitor, single point]
